{
  "source": "PubChem BioAssay AID463173",
  "about": "(ICCB-Longwood Screening Facility, Harvard Medical School, 2010)",
  "note": "Screen size: about 52,000 compounds; about 4,300 (8.3%) were called active. No stated cut-off is given here; in the data, active means survival mostly below about 52% (no sharp cut-off); inactive means mostly above about 56%. The list shows a part of the results.",
  "data": [
    {"test_system": "DeltatarO mutant", "experiment": "S. aureus survival, RN4220 and DeltatarO strains – OD600, teichoic acid synthesis inhibitors, primary screen (AID 463173)", "conditions": "S. aureus RN4220 wild type/DeltatarO growth, OD600, 18 h, stronger effect = lower value, screened at 18.75 µg/mL (by protocol)", "values": [
      {"smiles": "COc1ccc(-c2nc3c(C#N)c[nH]n3c2NC2CCCC2)c(OC)c1", "survival": "inactive: 65%"},
      {"smiles": "Cc1ccc2c(=O)cc(C(=O)Nc3sc4c(c3C(=O)NCc3cccnc3)CCCC4)oc2c1C", "survival": "inactive: 110%"},
      {"smiles": "Fc1ccc(-c2noc3ncnc(NCCCN4CCN(c5ccccc5)CC4)c23)cc1", "survival": "inactive: 84%"},
      {"smiles": "O=c1oc2c(CN3CCN(CCO)CC3)c(O)ccc2cc1-c1ccccc1", "survival": "inactive: 67%"},
      {"smiles": "COc1ccc(Cn2ccc3nc(C)c(C(=O)NCc4ccc(F)cc4)cc3c2=O)cc1", "survival": "inactive: 103%"},
      {"smiles": "CCOC(=O)c1c(C)[nH]c(C)c1S(=O)(=O)N1CCCC(C(=O)N2CCN(c3ccccc3)CC2)C1", "note": "(stereo not given)", "survival": "inactive: 86%"},
      {"smiles": "CCOCCc1nn2c(=O)cc(COC(=O)C3CCCCC3)nc2s1", "survival": "inactive: 88%"},
      {"smiles": "Cc1cccn2c(=O)c3cc(C(=O)NC(C)c4ccccc4)c(=N)n(CCCO)c3nc12", "note": "(stereo not given)", "survival": "inactive: 92%"},
      {"smiles": "Cc1ccc2c(=O)cc(C(=O)Nc3cccc(C(F)(F)F)c3)oc2c1C", "survival": "inactive: 73%"},
      {"smiles": "Cc1ccc(NC(=O)CSc2nnc3scc(-c4ccccc4)n23)cc1", "survival": "active: 15%"},
      {"smiles": "O=C(O)c1nnc(Cl)c2ccccc12", "survival": "inactive: 91%"},
      {"smiles": "COC(=O)c1ccc(OCC2c3cc(OC)c(OC)cc3CCN2C(=O)c2ccc(F)cc2)cc1", "note": "(stereo not given)", "survival": "inactive: 76%"},
      {"smiles": "O=C(Cn1nnc(-c2ccccc2Cl)n1)Nc1ccc(Br)cc1", "survival": "inactive: 62%"},
      {"smiles": "COCCCNc1oc(-c2ccc(COc3ccc(Cl)cc3)o2)nc1C#N", "survival": "inactive: 51%"},
      {"smiles": "Cc1nc2cc(N3CCN(C)CC3)c(NC(=O)C3CC3)cc2c(=O)n1Cc1ccccc1", "survival": "inactive: 79%"},
      {"smiles": "COc1ccc(CNC(=O)C2CCN(c3nc4ccccc4[nH]3)CC2)cc1OC", "survival": "inactive: 55%"},
      {"smiles": "O=C(Nc1sc2c(c1C(=O)NCC1CCCO1)CCC2)c1cc(=O)c2ccccc2o1", "note": "(stereo not given)", "survival": "inactive: 66%"},
      {"smiles": "CCCCCNC(=O)CCCCCn1c(=O)[nH]c2ccsc2c1=O", "survival": "inactive: 81%"},
      {"smiles": "CCOc1ccc(C2CC(=O)Nc3c2c(=O)nc(SCc2ccccc2C)n3C)cc1OC", "note": "(stereo not given)", "survival": "active: 42%"},
      {"smiles": "CCn1cc(C(=O)OCC(=O)Nc2cccc(C(C)=O)c2)c(=O)c2ccc(C)nc21", "survival": "inactive: 84%"},
      {"smiles": "CCOC(=O)c1c(S(=O)(=O)N2CCCC(C(=O)Nc3cccc(C)n3)C2)c(C)n(C)c1C", "note": "(stereo not given)", "survival": "inactive: 87%"},
      {"smiles": "COc1ccc(Cn2c(=O)c3oc4ccccc4c3n(Cc3ccc(Cl)cc3)c2=O)cc1", "survival": "inactive: 107%"},
      {"smiles": "CCN(CC)CCCNC(=O)c1nn(C)c2c1CS(=O)(=O)c1ccccc1-2", "survival": "inactive: 61%"},
      {"smiles": "Cc1ccccc1Cn1c(CN2CCC(C(=O)NCCc3ccccc3)CC2)cc2ccccc21", "survival": "inactive: 94%"},
      {"smiles": "CCC(=O)Nc1cccc(C(=O)OCc2cc(=O)n3nc(CC)sc3n2)c1", "survival": "inactive: 96%"},
      {"smiles": "COc1ccc2c(c1)c1c(c(=O)n(CCc3ccccc3)c(=O)n1Cc1ccc(F)cc1)n2C", "survival": "active: 6%"},
      {"smiles": "CCN(CC)c1nc2ccccc2nc1C(=O)Nc1cccc(C(C)=O)c1", "survival": "inactive: 73%"},
      {"smiles": "COc1ccc(NC(=O)c2c(-c3ccc(C)cc3)nnc3ccccc23)c(OC)c1", "survival": "inactive: 81%"},
      {"smiles": "COc1ccc2c(c1)c1c(c(=O)n(-c3ccc(F)c(Cl)c3)c(=O)n1Cc1ccccc1C)n2C", "survival": "inactive: 83%"},
      {"smiles": "CCn1c(O)c(/C=C/c2nc3ccccc3n2CC)sc1=S", "survival": "inactive: 78%"},
      {"smiles": "CCSC1=NC2(CCN(C(=O)NC3CCCCC3)CC2)N=C1c1ccc(Cl)cc1", "survival": "inactive: 69%"},
      {"smiles": "CCOc1ccc(CN2CCc3nc(Nc4ccc(OC)cc4OC)ncc3C2)cc1", "survival": "inactive: 99%"},
      {"smiles": "O=C(NCCCN1CCN(c2ccc(F)cc2)CC1)c1ccc2nc(Cc3ccccc3)oc2c1", "survival": "inactive: 115%"},
      {"smiles": "Cc1cc(C)nc(NC(C)(C)C(=O)O)n1", "survival": "inactive: 67%"},
      {"smiles": "CCc1nn(Cc2ccc(Cl)cc2)c(=O)c2cc3cc(C)ccc3n12", "survival": "inactive: 94%"},
      {"smiles": "Cc1ccc(NC(=O)c2sc3nc4c(cc3c2N)CN(Cc2ccccc2)CC4)cc1", "survival": "inactive: 110%"},
      {"smiles": "O=c1[nH]cnc2c1[nH]c1ccccc12", "survival": "inactive: 102%"},
      {"smiles": "CCN1C(=O)c2ccccc2Sc2ccc(NC(=O)c3ccc(Cl)cc3)cc21", "survival": "inactive: 97%"},
      {"smiles": "Cc1oc2ncn(C)c(=O)c2c1C(=O)N1CCN(c2ccccc2F)CC1", "survival": "inactive: 87%"},
      {"smiles": "Nc1ccc(N2CCCC2)cc1", "survival": "inactive: 86%"},
      {"smiles": "CCc1ccccc1NC(=O)c1cnc2sc(N3CCCC3)nn2c1=O", "survival": "inactive: 104%"},
      {"smiles": "O=C(Nc1ccc(-c2cn3cccnc3n2)cc1)c1cc(Br)ccc1Cl", "survival": "inactive: 105%"},
      {"smiles": "Cc1nnc(N2CCCC(C(=O)NCCc3ccc(Cl)cc3)C2)c2nn(-c3ccccc3)c(C)c12", "note": "(stereo not given)", "survival": "inactive: 83%"},
      {"smiles": "CC(=O)N1CC=C2C(C#N)=C(N)C(C#N)(C#N)C(Cc3ccccc3)C2C1", "note": "(stereo not given)", "survival": "inactive: 90%"},
      {"smiles": "O=C(Nc1cccc(Cl)c1)c1cc2c(=O)[nH]c3ccccc3c2s1", "survival": "inactive: 47%"},
      {"smiles": "Cc1cccc(N2CCN(C(=O)CCn3c(=O)c4cccn4c4cccnc43)CC2C)c1", "note": "(stereo not given)", "survival": "inactive: 63%"},
      {"smiles": "COc1cccc(C(=O)Nc2cccc(-c3cn4c(C)csc4n3)c2)c1OC", "survival": "inactive: 108%"},
      {"smiles": "Cc1cccc(-c2nc3c4ccccc4nc(N4CCN(c5cc(C)ccc5C)CC4)n3n2)c1", "survival": "inactive: 121%"},
      {"smiles": "Cc1cn2c(=O)cc(COC(=O)COc3ccccc3C)nc2s1", "survival": "inactive: 76%"},
      {"smiles": "CCOC(=O)c1cnc2c(C)c(C)ccc2c1NCCCCCO", "survival": "inactive: 84%"},
      {"smiles": "CCOC(=O)c1c(C)[nH]c(CCC(=O)NCc2ccc(N(C)C)cc2)c1C", "survival": "inactive: 83%"},
      {"smiles": "O=c1cc(-c2ccccc2)n2c(SCc3ccc(F)cc3)nnc2[nH]1", "survival": "inactive: 73%"},
      {"smiles": "O=c1oc2ccccc2cc1-c1cn2cc(Cc3ccc(Cl)cc3)sc2n1", "survival": "inactive: 84%"},
      {"smiles": "CCN(Cc1ccccc1)C(=O)Cn1c(=O)n(-c2ccc(C)c(C)c2)c(=O)c2c(C)c(C)sc21", "survival": "inactive: 84%"},
      {"smiles": "COc1ccc(CNc2oc(-c3ccc(COc4ccccc4C)o3)nc2C#N)cc1", "survival": "inactive: 50%"},
      {"smiles": "O=C(Nc1cccc(C(F)(F)F)c1)c1cc2ccc3cccnc3c2[nH]1", "survival": "inactive: 72%"},
      {"smiles": "Cc1ccc(-c2nc(C)c(CCNS(=O)(=O)c3ccc(F)c(C(F)(F)F)c3)s2)cc1", "survival": "active: -4%"},
      {"smiles": "CCn1cc(C(=O)N2CCN(c3ccccc3F)CC2)c(=O)c2cc(S(=O)(=O)N(C)C)ccc21", "survival": "inactive: 122%"},
      {"smiles": "COc1cccc(N2CCN(C(=O)Cn3c(-c4cccs4)cc4ccccc43)CC2)c1", "survival": "inactive: 104%"},
      {"smiles": "CC1=C(C(=O)Nc2ccc(C)cc2C)C(c2cccs2)n2nc(SCc3ccccc3Cl)nc2N1", "note": "(stereo not given)", "survival": "inactive: 61%"},
      {"smiles": "COc1ccc(CN2C(=O)c3ccccc3C2C(=O)NCCc2ccccc2)c(OC)c1", "note": "(stereo not given)", "survival": "inactive: 86%"},
      {"smiles": "Cc1cc2oc(C(=O)Nc3ccc(S(=O)(=O)N4CCCCCC4)cc3)cc(=O)c2cc1C", "survival": "active: 42%"},
      {"smiles": "CCN(CC)c1ccc(NS(=O)(=O)c2cc3[nH]c(=O)c(=O)[nH]c3cc2C)c(C)c1", "survival": "inactive: 74%"},
      {"smiles": "CCN(CC)c1ccc(NC(=O)CSc2nc(-c3cccs3)cc(C(F)(F)F)n2)cc1", "survival": "inactive: 128%"},
      {"smiles": "Cc1ccc(NC(=O)Nc2nnc(N(C)Cc3ccccc3)s2)c(C)c1", "survival": "inactive: 81%"},
      {"smiles": "CC(C)c1ccc(OC(=O)c2cc(-c3ccccc3)on2)cc1", "survival": "inactive: 109%"},
      {"smiles": "CCOc1ccc(-n2nc3ccc(NC(=O)COc4ccc(OC)cc4)cc3n2)cc1", "survival": "inactive: 74%"},
      {"smiles": "COC(=O)c1ccc(C2C(C(=O)Nc3ccccc3)=C(C)Nc3nc4ccccc4n32)cc1", "note": "(stereo not given)", "survival": "inactive: 70%"},
      {"smiles": "CC(=O)N1CCc2c(sc3nc(SCC(C)C)n(-c4ccc(F)c(Cl)c4)c(=O)c23)C1", "survival": "inactive: 63%"},
      {"smiles": "O=C(NCCN1CCCC1)c1ccc2c(c1)OCCO2", "survival": "inactive: 99%"},
      {"smiles": "CCCSc1ncc(Cl)c(C(=O)Nc2c(C(=O)Nc3ccc(C)cc3)oc3ccccc23)n1", "survival": "inactive: 62%"},
      {"smiles": "COc1cc(C)cc2oc(=O)c(CC(=O)NCc3cccc(Cl)c3)c(C)c12", "survival": "inactive: 58%"},
      {"smiles": "CCc1nc(Oc2cccc(F)c2)c2oc3ccccc3c2n1", "survival": "inactive: 92%"},
      {"smiles": "Cc1ccc(NC(=O)CN2C(=O)CCSc3ccc(S(=O)(=O)N4CCCC4)cc32)cc1C", "survival": "inactive: 99%"},
      {"smiles": "CC1=C(c2ccc(C)cc2)S(=O)(=O)NC1=NCCCN1CCN(c2ccc(F)cc2)CC1", "survival": "inactive: 69%"},
      {"smiles": "Cc1ccc(C)c(OC(=O)CSc2nnc(CNC(=O)c3ccccc3)o2)c1", "survival": "inactive: 105%"},
      {"smiles": "O=C(N/N=C/c1c(O)ccc2ccccc12)C1CC12CCC2", "note": "(stereo not given)", "survival": "inactive: 83%"},
      {"smiles": "CC(C)(C)c1ccc(C(=O)NC2CCNCC2)cc1", "survival": "inactive: 102%"},
      {"smiles": "Cc1cc(NC(=O)C2CCN(S(=O)(=O)c3ccc(Br)s3)CC2)ccc1Br", "survival": "inactive: 79%"},
      {"smiles": "Cc1ccc(NC(=O)C2C3C=CC4(O3)C2C(=O)N(c2ccccc2F)C4C(=O)NC2CCCC2)cc1", "note": "(stereo not given)", "survival": "inactive: 68%"},
      {"smiles": "Cc1ccc(Cl)cc1N1CCN(Cc2nnc(-c3ccc4c(c3)OCO4)o2)CC1", "survival": "inactive: 80%"},
      {"smiles": "Cc1ccc(CNC(=O)CSc2n[nH]c(-c3ccc(F)cc3)n2)cc1", "survival": "inactive: 122%"},
      {"smiles": "O=C(N/N=C/c1ccccc1)c1[nH]ncc1I", "survival": "inactive: 104%"},
      {"smiles": "CC1=C(C(=O)Nc2ccccc2)C(c2cccn2C)n2ncnc2N1", "note": "(stereo not given)", "survival": "inactive: 95%"},
      {"smiles": "Cc1ccc(C)c(Cn2c(C3CC(=O)N(c4ccccc4C)C3)nc3ccccc32)c1", "note": "(stereo not given)", "survival": "inactive: 80%"},
      {"smiles": "Cc1ccc(Nc2nc(C)nc(N)c2S(=O)(=O)c2ccccc2)cc1", "survival": "inactive: 94%"},
      {"smiles": "COc1ccc(Cn2c(=O)c3oc4ccccc4c3n(CC(=O)Nc3ccc(F)cc3F)c2=O)cc1", "survival": "inactive: 75%"},
      {"smiles": "O=C(NCCc1ccccc1Cl)c1ccc2c(c1)nc1n2CCCCC1", "survival": "inactive: 80%"},
      {"smiles": "COc1cccc(CCNC(=O)c2c(O)nc3ccccn3c2=O)c1", "survival": "active: 48%"},
      {"smiles": "CC(C)c1cccc(OCCn2c(-c3ccc(Cl)cc3)nc3ccccc3c2=O)c1", "survival": "inactive: 78%"}
    ]}
  ]
}
